The text below walks through data of publication PMC9316867.

No constants are given. Whether binding was seen depends on the method and setting. Binding seen in cells or lysates may run through a third protein. Some binding calls cover weakened binding; strength is not graded here. Sequences can lack the tags named with a protein.

Assay [1] deals with T1, HA-tagged Bim1 (S. cerevisiae) (UniProt P40013).
T1 sequence: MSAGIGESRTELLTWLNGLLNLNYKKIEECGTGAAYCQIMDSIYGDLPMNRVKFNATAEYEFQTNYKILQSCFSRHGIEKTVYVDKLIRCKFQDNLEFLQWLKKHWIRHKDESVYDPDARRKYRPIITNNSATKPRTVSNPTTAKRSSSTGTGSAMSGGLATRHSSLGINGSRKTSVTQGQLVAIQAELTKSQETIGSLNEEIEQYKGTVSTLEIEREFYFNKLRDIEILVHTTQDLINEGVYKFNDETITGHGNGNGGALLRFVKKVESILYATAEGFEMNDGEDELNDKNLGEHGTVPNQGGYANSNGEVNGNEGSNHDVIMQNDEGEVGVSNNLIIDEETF
Nature of the assay: co-IP; HA-tagged Bim1 precipitated from total yeast lysates (5 mg) with anti-HA antibody and protein A agarose, 4 °C; lysis buffer 50 mM Tris-HCl pH 7.5, 150 mM NaCl, 1% Nonidet P-40; Myc-tagged Kar9 or Kip2 detected by anti-MYC blot; Δbfa1 cells overexpressing Bfa1 (GAL promoter) or with the vector control.

Assay [2] deals with T2, VN-tagged Bik1 (S. cerevisiae) (UniProt P11709).
T2 sequence: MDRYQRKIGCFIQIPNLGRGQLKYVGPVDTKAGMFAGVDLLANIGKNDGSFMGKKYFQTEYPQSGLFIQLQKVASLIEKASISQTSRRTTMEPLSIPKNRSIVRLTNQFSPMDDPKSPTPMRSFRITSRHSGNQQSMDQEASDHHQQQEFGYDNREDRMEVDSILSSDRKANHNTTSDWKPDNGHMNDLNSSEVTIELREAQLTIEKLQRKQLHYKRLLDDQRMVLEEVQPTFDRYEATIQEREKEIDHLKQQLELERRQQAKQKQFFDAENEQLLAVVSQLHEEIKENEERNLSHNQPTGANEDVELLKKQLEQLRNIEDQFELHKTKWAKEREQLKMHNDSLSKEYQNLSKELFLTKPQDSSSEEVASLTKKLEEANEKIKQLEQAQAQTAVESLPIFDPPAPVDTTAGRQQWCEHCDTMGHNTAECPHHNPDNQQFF
Nature of the assay: split reporter; BiFC in living wild-type (W303a bar1) yeast cells co-expressing a VN-tagged and a VC-tagged protein from the chromosomal loci; Zeiss LSM880 confocal microscope, 100x oil objective.

Assay [3] deals with T3, VC-tagged Bim1 (S. cerevisiae) (UniProt P40013).
T3 sequence: T1 sequence
The description is as above.

In assay [4] the target is T3, VC-tagged Bim1 (S. cerevisiae). The experiment in a line: split reporter; BiFC in living Δbub2 yeast cells (YSK3361) co-expressing VN-tagged Bfa1 and VC-tagged Bim1; Zeiss LSM880 confocal microscope, 100x oil objective.

B1: Myc-tagged Kar9 (protein, UniProt P32526 1-644)
chain: MDNDGPRSMTIGDDFQENFCERLERIHNTLHSINDCNSLNESTTSISETLLVQFYDDLENVASVIPDLVNKKRLGKDDILLFMDWLLLKKYMLYQFISDVHNIEEGFAHLLDLLEDEFSKDDQDSDKYNRFSPMFDVIEESTQIKTQLEPWLTNLKELLDTSLEFNEISKDHMDTLHKIINSNISYCLEIQEERFASPIRHTPSFTLEQLVKLLGTHTETTEPKVPKFSPAEDILSRKFLNLKKNIPPIEKSLTDILPQRIVQFGHRNITNITTLQTILQKKYELIMKDYRFMNSEFRELKVELIDKRWNILFINLNHELLYILDEIERLQSKLLTTKYTKDITIRLERQLERKSKTVSKTFNIIYRALEFSLLDAGVASKTNELAQRWLNIKPTADKILIKSSASNKIATSKKKIPKPKSLGFGRPNSVIGTITQDFQERVAINEGDSNKTPENSTTVALKGKKLGKALLQKMNIKPATSPNSSNAINPFFDPESPNKGKLILSSVPPLPYDETDETTLRVSRGENEKSPDSFITSRHENKVQITETPLMAKNKSVLDIEKDKWNHYRSLPSRIPIYKDKVVKVTVENTPIAKVFQTPPTKITTPNSQVWVPSTRRRTRLRPPTPLSQLLSPREGRLDKTPTY
As to B1, in assay [1], the binding entry was “binds”.

B2: VC-tagged Kip2 (protein, UniProt P28743 1-706)
chain: MIQKMSPSLRRPSTRSSSGSSNIPQSPSVRSTSSFSNLTRNSIRSTSNSGSQSISASSTRSNSPLRSVSAKSDPFLHPGRIRIRRSDSINNNSRKNDTYTGSITVTIRPKPRSVGTSRDHVGLKSPRYSQPRSNSHHGSNTFVRDPWFITNDKTIVHEEIGEFKFDHVFASHCTNLEVYERTSKPMIDKLLMGFNATIFAYGMTGSGKTFTMSGNEQELGLIPLSVSYLFTNIMEQSMNGDKKFDVIISYLEIYNERIYDLLESGLEESGSRISTPSRLYMSKSNSNGLGVELKIRDDSQYGVKVIGLTERRCESSEELLRWIAVGDKSRKIGETDYNARSSRSHAIVLIRLTSTNVKNGTSRSSTLSLCDLAGSERATGQQERRKEGSFINKSLLALGTVISKLSADKMNSVGSNIPSPSASGSSSSSGNATNNGTSPSNHIPYRDSKLTRLLQPALSGDSIVTTICTVDTRNDAAAETMNTLRFASRAKNVALHVSKKSIISNGNNDGDKDRTIELLRRQLEEQRRMISELKNRSNIGEPLTKSSNESTYKDIKATGNDGDPNLALMRAENRVLKYKLENCEKLLDKDVVDLQDSEIMEIVEMLPFEVGTLLETKFQGLESQIRQYRKYTQKLEDKIMALEKSGHTAMSLTGCDGTEVIELQKMLERKDKMIEALQSAKRLRDRALKPLINTQQSPHPVVDNDK
B2: the binding entry in assay [2] is reported as “binds”.

B3: Myc-tagged Kip2 (protein, UniProt P28743 1-706)
chain: B2 chain
With B3, the binding result in assay [1] is reported as “binds”.

B4: VN-tagged Bfa1 (protein, UniProt P47113 1-574)
chain: MSIRPLTLNGLDEPETSFEELNTTLPRFQSHETLTLEENVPPLSTSTYIPPPSSVGTSDTGTVFSNSTSAFWSNKQADDDQDMEVDQDDEFLNDFQEFQNKKDDFDDAIKTNFHLRNGCRTGPFKNDIFAEEFDRKLSLEDKPRLKQPRSMMELKPKRKLSNSVTSRNLRSGNSVRFKKSMPNLALVNPAIREEEEDEEREREDQREFNYKIDNDTQDTILAKFSSDDEGDFLTGFEELEGEAIDETISSNDKESADHPRFLKKSSSSLPLKISPAQYDIVKHDELLTPGLHRRQRDWNTQQELDSFKEKRSVRHCSNQNVQLNGPAKIKTIKQQIDHNTPMKKGSMIYNPKTMKWEGNENVLSKFSDVDTANRKALLIKNKLQRDADSKKQKYSDLQHARATSRNQKVIGNMILDEQNLRWVSVSEEEADPFAGIPEINLPPVGKSMKKRSSSPFLRSKSQVNTPFVSNDNDGVYQSTAAQARLRKYHSMRTLNGTTETPEISSTFHLSSRALEKFYHEENRWCKKLASWFIPRDETIISVDEETIMDESTVNSKRKSYMYEIRNMVINSTKD
For B4, the values for the binding result in assay [3] and in assay [4] were “binds” and “no binding (condition: in Δbub2 cells)”, respectively.
